Measurements reported in PubChem BioAssay AID1508623 (National Center for Advancing Translational Sciences (NCATS), 2021).
About 450 (0.94%) of roughly 48,000 compounds were called active. About 19% were inconclusive and are not listed. The call rests on the fitted dose curve; in most records, active means well fitted inhibition curve with a large enough effect; inconclusive means small, poorly fitted or top-dose-only effect; inactive means no such curve, though single readings can be large or run the other way. The list shows a part of the results.

test: Primary qHTS for Identification of Small Molecule Inhibitors of Huntingtin Promoter Activity; conditions: HEK293 HTT promoter firefly luciferase reporter (activity 0% = vehicle and -100% = no light), 24 h; series mostly up to 57.5 µM; activity change, negative = inhibition: at the top concentration; further: nearly all actives have a fitted effect of over 50% in size
In short: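 Firefly luciferase signal from promoter-reporter HEK293 cells was scaled between vehicle (0%) and zero RLU (-100%). Compounds were tested at final concentrations of up to 57.5 uM over 24 h at 37 degrees C. PTC124 at 50 uM final served as control inhibitor.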

Activity change, negative = inhibition, inactive:
CCc1ccc(Cn2c(CNS(=O)(=O)c3ccc(C)c(C)c3)nc3cccnc32)cc1 -5.78%, CCCCN(C)CCNC(=O)c1cc2c(=O)n(C)c3ccccc3c2n1C 10.6%, COc1ccc(CNC(=O)CCc2c(C)c3cc4c(C)coc4c(C)c3oc2=O)cc1OC -9.77%, CN1C(=O)c2ccccc2Sc2ccc(NC(=O)c3ccc(C(F)(F)F)cc3)cc21 -21.4%, N#Cc1ccccc1NS(=O)(=O)c1ccc(N2CCCCS2(=O)=O)cc1 -7.44%, CCCc1nn2c(=O)cc(COC(=O)c3ccc(NC(=O)COc4ccccc4)cc3)nc2s1 -9.37%, CCC(Oc1ccc(F)cc1)C(=O)Nc1c(C(=O)c2ccc(C)cc2)oc2ccccc12 (stereo not given) 9.78%, CCn1cc(C(=O)N2CCN(c3ccccc3)CC2)c(=O)c2cc(S(=O)(=O)N3CCOCC3)ccc21 -0.469%, COc1ccc(-c2nc3scc(CCNS(=O)(=O)c4ccc(F)cc4C)n3n2)cc1 -26.7%, COC(=O)c1cc2oc3ccccc3c2n1Cc1ccc(Cl)cc1 -5.13%, CCN(CC)CCNC(=O)c1cc2c(=O)n(C)c3cc(Cl)ccc3c2s1 -2.11%, CCOC(=O)c1[nH]c(C)c(CCC(=O)NCc2ccc(CC)cc2)c1C -26.4%, COc1cccc(CN2c3ccccc3-c3nc(SCC(=O)Nc4ccccc4Cl)ncc3S2(=O)=O)c1 -36.1%, Cc1ccc(-c2ccc(=O)n(CCC(=O)NCCc3ccccc3)n2)cc1 4.32%, COc1ccc(NC(=O)c2ccc3nc(C(C)C)oc3c2)cc1OC -1.49%, COc1ccc(N(C)C(=O)c2cn(C)c(=O)c3cc(OC)c(OC)cc23)cc1 -4.06%, Cc1ccc(Cn2c(CO)cnc2SCC(=O)Nc2ccc(C)c(Cl)c2)cc1 -23.7%, COc1ccc(NC(=O)Cn2cc(S(=O)(=O)c3ccccc3)c(=O)c3cc4c(cc32)OCO4)cc1 -11.8%, CCN1CCc2c(sc(-n3cccc3)c2C(C)NC(=O)Nc2ccc(Br)cc2)C1 (stereo not given) -19.9%, CCCC(=O)OCc1cnc(C)c2oc(=O)c(C(=O)Nc3cccc(C(F)(F)F)c3)cc12 -4.63%, CON=C(C(=O)N[C@@H]1C(=O)N2C(C(=O)OCOC(=O)C(C)(C)C)=C(C=Cc3scnc3C)CS[C@H]12)c1csc(N)n1 9.02%, Cc1c(C(=O)Nc2ccccc2)sc2nc(-c3cc4cc(Cl)ccc4oc3=O)[nH]c(=O)c12 1.15%, CCC(=O)Nc1ccccc1-c1nc2ccccc2n(CC(=O)Nc2ccccc2OC)c1=O -23.5%, Cc1ccccc1C(=O)Nc1ccc2nc(N3CCCCC3)cc(C)c2c1 14.3%, CCN(CC)C(=O)c1sc2c(c1C)c(=O)n(CCc1ccccc1)c(=O)n2Cc1cc(C)ccc1C 0%
